Target: Galectin-9 (UniProt O00182 1-355)
Test: SPR; 25°C

Kd: > 15 µM
B1: human 4-1BB […], wild type, His–Avi (receptor)
chain: not shown
